# Laboratory results: the antibiotic and cytotoxicity screens of Wong et al. (2023)
# The list shows a part of the results.
# Tests used:
# HSkMC = human skeletal muscle cells; experiment: cytotoxicity call (relative viability < 0.9); conditions: 10 µM
# HepG2 = experiment: cytotoxicity call (relative viability < 0.9); conditions: 10 µM
# S. aureus RN4220 = experiment: growth inhibition call (relative growth <= 0.2); conditions: 50 µM
SMILES,cytotoxicity call (HSkMC),cytotoxicity call (HepG2),growth inhibition call (S. aureus RN4220)
C[C@@H]1CCCCO[C@H](CN(C)Cc2ccc(Cl)c(Cl)c2)[C@@H](C)CN([C@H](C)CO)C(=O)c2cc(NC(=O)Nc3ccccc3)ccc2O1,inactive,inactive,inactive
C[C@@H]1CN([C@@H](C)CO)C(=O)CCCn2nncc2CO[C@@H]1CN(C)C(=O)c1ccc(N2CCN(C)CC2)cc1,inactive,inactive,inactive
Cc1noc(C)c1S(=O)(=O)Nc1ccc2c(c1)CC(=O)N([C@@H](C)CO)C[C@@H](C)[C@@H](CN(C)S(=O)(=O)c1c(C)noc1C)O2,inactive,inactive,inactive
C[C@@H]1CN([C@@H](C)CO)C(=O)c2cccc(NC(=O)Nc3ccc(C(F)(F)F)cc3)c2O[C@@H]1CN(C)C(=O)Nc1ccc(F)cc1,inactive,inactive,inactive
COc1ccc(S(=O)(=O)Nc2ccc3c(c2)CC(=O)N([C@@H](C)CO)C[C@@H](C)[C@@H](CN(C)S(=O)(=O)c2ccc(C)cc2)O3)cc1,inactive,inactive,inactive
C[C@H](CO)N1C[C@H](C)[C@H](CN(C)S(=O)(=O)c2cccs2)OCCCC[C@H](C)Oc2ccc(NC(=O)Nc3ccc(C(F)(F)F)cc3)cc2C1=O,inactive,inactive,inactive
Cc1cc(C(=O)Nc2cccc3c2O[C@@H](CN(C)Cc2ccc(C(=O)O)cc2)[C@@H](C)CN([C@@H](C)CO)C3=O)n(C)n1,inactive,inactive,inactive
CCN(CC)C(=O)C(C#N)=Cc1cc(O)c(O)c([N+](=O)[O-])c1,inactive,inactive,inactive
COc1ccc(S(=O)(=O)N(C)C[C@@H]2Oc3ccc(NS(C)(=O)=O)cc3C(=O)N([C@@H](C)CO)C[C@@H]2C)cc1,inactive,inactive,inactive
CCC(=O)Nc1ccc2c(c1)OC[C@@H](C)N(Cc1ccc(-c3ccccn3)cc1)C[C@@H](C)[C@H](OC)CN(C)C2=O,inactive,inactive,inactive
CNC(=O)c1c(N)cnn1C,inactive,inactive,inactive
C[C@@H]1CN([C@@H](C)CO)C(=O)Cc2cc(NC(=O)CCCCCC(=O)Nc3ccccc3N)ccc2O[C@@H]1CN(C)C(=O)Nc1ccc(F)cc1,inactive,inactive,inactive
CC(C)C(=O)Oc1ccc(CO)cc1C(CCN(C(C)C)C(C)C)c1ccccc1.O=C(O)C=CC(=O)O (stereo unspecified),inactive,active,inactive
C[C@@H]1CCCCO[C@H](CN(C)C(=O)Cc2ccccc2)[C@@H](C)CN([C@H](C)CO)C(=O)c2cc(NC(=O)C3CCCCC3)ccc2O1,inactive,inactive,inactive
Cc1noc(C)c1NC(=O)Nc1ccc2c(c1)C(=O)N([C@H](C)CO)C[C@H](C)[C@@H](CN(C)C(=O)Nc1ccccc1)OCCCC[C@@H](C)O2,inactive,inactive,inactive
Cc1noc(C)c1S(=O)(=O)N(C)C[C@@H]1Oc2ccc(NC(=O)Cc3cn(C)c4ccccc34)cc2CC(=O)N([C@@H](C)CO)C[C@H]1C,inactive,inactive,inactive
CN(C)CCCCNC(=O)[C@H]1C[C@H]2C(=O)N[C@@H](CCCCN)C(=O)N2[C@H]1c1ccc(O)cc1,inactive,inactive,inactive
O=c1ncccn1[C@@H]1O[C@H](CO)[C@@H](O)[C@H]1O,inactive,inactive,inactive
C[C@H]1CN([C@@H](C)CO)C(=O)Cc2cc(NC(=O)CCN3CCOCC3)ccc2O[C@H]1CN(C)S(C)(=O)=O,inactive,inactive,inactive

SMILES,cytotoxicity call (HSkMC),cytotoxicity call (HepG2),growth inhibition call (S. aureus RN4220)
COc1ccc(CN(C)C[C@H]2Oc3ccc(NC(=O)CCN4CCOCC4)cc3CC(=O)N([C@@H](C)CO)C[C@@H]2C)cc1,inactive,inactive,inactive
CC1COc2c(N3CCN(C)CC3)c(F)cc3c(=O)c(C(=O)O)cn1c23 (stereo unspecified),inactive,inactive,active
O=C(O)[C@@H]1C[C@@H](O)CN1,inactive,inactive,inactive
C=CCCN(CC#C[C@H]1Oc2ccccc2S(=O)(=O)N2CCC[C@@H]12)S(=O)(=O)c1ccc(C)cc1,inactive,active,inactive
C[C@H](CO)N1C[C@H](C)[C@@H](CN(C)Cc2ccc(C(=O)O)cc2)Oc2ccc(NC(=O)CCN3CCOCC3)cc2CC1=O,inactive,inactive,inactive
CC(C)C#Cc1ccc2c(c1)O[C@H](CN(C)C(=O)c1cccc(F)c1)[C@H](C)CN([C@H](C)CO)S2(=O)=O,inactive,inactive,inactive
C[C@H](O)[C@H](O)[C@H]1CNc2[nH]c(N)nc(=O)c2N1,inactive,inactive,inactive
CC(C)NC(=O)N(C)C[C@H]1Oc2ccc(NC(=O)C3CCCCC3)cc2CC(=O)N([C@@H](C)CO)C[C@H]1C,inactive,inactive,inactive
CC(=O)OC1CC2CCC3C(CCC4(C)C3CC([N+]3(C)CCCCC3)C4OC(C)=O)C2(C)CC1N1CCCCC1.[Br-] (stereo unspecified),inactive,inactive,inactive
C[C@H](CO)N1C[C@H](C)[C@H](CN(C)S(=O)(=O)c2cccs2)Oc2ccc(NC(=O)C3CC3)cc2C1=O,inactive,inactive,inactive
C[C@@H]1CCCCO[C@H](CN(C)C(=O)c2ccccc2)[C@@H](C)CN([C@H](C)CO)C(=O)c2cc(NC(=O)NC3CCCCC3)ccc2O1,inactive,inactive,inactive
CNC1CCC(c2ccc(Cl)c(Cl)c2)c2ccccc21.Cl (stereo unspecified),active,active,active
COc1ccc(NC(=O)Nc2ccc3c(c2)C(=O)N([C@@H](C)CO)C[C@H](C)[C@@H](CN(C)S(C)(=O)=O)O3)cc1,inactive,inactive,inactive
C[C@H](CO)N1C[C@H](C)[C@H](CN(C)S(=O)(=O)c2ccc(Cl)cc2)Oc2c(NS(C)(=O)=O)cccc2C1=O,inactive,inactive,inactive
C[C@@H]1CCCCO[C@H](CN(C)C(=O)CCCN(C)C)[C@@H](C)CN([C@H](C)CO)C(=O)c2cc(NC(=O)Nc3ccc(C(F)(F)F)cc3)ccc2O1,inactive,inactive,inactive
C[C@H](CO)N1C[C@H](C)[C@H](CN(C)S(=O)(=O)c2ccc(F)cc2)Oc2ccc(NS(=O)(=O)c3cn(C)cn3)cc2C1=O,inactive,inactive,inactive
CC(=O)NCC(=O)N1CCC2(CC1)CN(c1cccnc1)C(=O)CO2,inactive,inactive,inactive
COc1ccccc1S(=O)(=O)N(C)C[C@@H]1OCc2cnnn2CCCC(=O)N([C@H](C)CO)C[C@H]1C,inactive,inactive,inactive
